Drawing on publication PMC6386418, this text covers binding for four molecules.

Where a chain is given by its changes, count along the chain named. Names may count otherwise. Results are given in words; binding and its absence hold for the method and conditions named. For part of these data: Binding seen in cells or lysates may run through a third protein. Some binding calls cover weakened binding; strength is not graded here. Tags and fused reporters may be left off the sequences shown.

Assay [1] addresses T1, DB:UCN_(KD/ΔPIF) (Arabidopsis thaliana) (UniProt Q9SYB9).
T1 sequence: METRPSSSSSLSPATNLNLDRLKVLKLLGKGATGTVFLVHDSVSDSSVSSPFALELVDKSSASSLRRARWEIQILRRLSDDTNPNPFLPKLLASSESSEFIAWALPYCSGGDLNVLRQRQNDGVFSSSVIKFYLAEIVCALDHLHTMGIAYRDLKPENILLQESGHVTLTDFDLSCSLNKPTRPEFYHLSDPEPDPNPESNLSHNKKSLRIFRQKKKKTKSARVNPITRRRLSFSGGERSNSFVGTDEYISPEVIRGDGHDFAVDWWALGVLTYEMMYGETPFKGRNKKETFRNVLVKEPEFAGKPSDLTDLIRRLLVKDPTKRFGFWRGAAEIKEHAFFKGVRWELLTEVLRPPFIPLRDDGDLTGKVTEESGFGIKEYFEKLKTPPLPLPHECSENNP
Put plainly: two-hybrid; GAL4 system: DB:UCN versions with AD:PDK1 versions in yeast AH109; growth on SD medium without Leu, Trp, His and Adenine with 5 mM 3-AT, 30°C, 3 days; repeated three times.

The target in assay [2] is T2, DB:UCN (UNICORN fused to the DNA-binding domain of GAL4) (Arabidopsis thaliana) (UniProt Q9SYB9).
T2 sequence: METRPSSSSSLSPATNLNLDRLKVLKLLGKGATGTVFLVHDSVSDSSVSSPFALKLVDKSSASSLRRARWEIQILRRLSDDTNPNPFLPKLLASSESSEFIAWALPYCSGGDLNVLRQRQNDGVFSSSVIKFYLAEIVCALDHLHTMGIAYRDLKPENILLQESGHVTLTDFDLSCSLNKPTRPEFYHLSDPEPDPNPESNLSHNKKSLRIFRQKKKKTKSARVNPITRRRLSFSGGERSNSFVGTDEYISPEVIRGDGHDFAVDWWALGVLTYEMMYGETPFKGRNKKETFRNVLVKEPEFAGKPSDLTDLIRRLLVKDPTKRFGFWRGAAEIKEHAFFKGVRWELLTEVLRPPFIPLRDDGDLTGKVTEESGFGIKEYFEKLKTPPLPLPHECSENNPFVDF
Described as above.

For assay [3], the target named is T3, DB:UCN_(ΔPIF) (Arabidopsis thaliana) (UniProt Q9SYB9).
T3 sequence: T1 sequence with E55K
The description is as above.

Assay [4] concerns the target T4, DB:UCN_(G165S) (Arabidopsis thaliana) (UniProt Q9SYB9).
T4 sequence: T2 sequence with G165S
The description is as above.

The target in assay [5] is T5, DB:UCNKD (UCN_(K55E)) (Arabidopsis thaliana) (UniProt Q9SYB9).
T5 sequence: T2 sequence with K55E
The description is as above.

Assay [6] has as its target T6, UCN:YFPC (UNICORN fused to the C-terminal part of YFP) (Arabidopsis thaliana) (UniProt Q9SYB9).
T6 sequence: T2 sequence
Kind of assay: split reporter; BiFC with split YFP (pSPYNE-35S / pSPYCE-35S) in Arabidopsis Col-0 mesophyll protoplasts; 21°C in the dark for 10 to 15 hours; confocal microscopy.

The target of assay [7] is T7, UCN_(KD/ΔPIF):YFPC (Arabidopsis thaliana) (UniProt Q9SYB9).
T7 sequence: T1 sequence
Described as above.

The target in assay [8] is T8, UCNKD:YFPC (UCN_(K55E)) (Arabidopsis thaliana) (UniProt Q9SYB9).
T8 sequence: T2 sequence with K55E
Described as above.

The target in assay [9] is T9, UCN_(G165S):YFPC (Arabidopsis thaliana) (UniProt Q9SYB9).
T9 sequence: T2 sequence with G165S
The assay is described as above.

Assay [10] concerns the target T10, UCN_(ΔPIF):YFPC (Arabidopsis thaliana) (UniProt Q9SYB9).
T10 sequence: T1 sequence with E55K
Described as above.

B1: AD:PDK1.1 (3-PHOSPHOINOSITIDE-… PROTEIN KINASE 1.1 fused to the activation domain of GAL4) (enzyme, UniProt Q9XF67 1-491)
chain: MLAMEKEFDSKLVLQGNSSNGANVSRSKSFSFKAPQENFTSHDFEFGKIYGVGSYSKVVRAKKKETGTVYALKIMDKKFITKENKTAYVKLERIVLDQLEHPGIIKLYFTFQDTSSLYMALESCEGGELFDQITRKGRLSEDEARFYTAEVVDALEYIHSMGLIHRDIKPENLLLTSDGHIKIADFGSVKPMQDSQITVLPNAASDDKACTFVGTAAYVPPEVLNSSPATFGNDLWALGCTLYQMLSGTSPFKDASEWLIFQRIIARDIKFPNHFSEAARDLIDRLLDTEPSRRPGAGSEGYVALKRHPFFNGVDWKNLRSQTPPKLAPDPASQTASPERDDTHGSPWNLTHIGDSLATQNEGHSAPPTSSESSGSITRLASIDSFDSRWQQFLEPGESVLMISAVKKLQKITSKKVQLILTNKPKLIYVDPSKLVVKGNIIWSDNSNDLNVVVTSPSHFKICTPKKVLSFEDAKQRASVWKKAIETLQNR
For the molecule B1, the binding result in [1] was “no binding”; in assay [2], “binds”; in [3], “no binding”; in assay [4], “no binding”; in [5], “no binding”.

B2: AD:PDK1.1KD (PDK1.1_(K73A)) (enzyme, UniProt Q9XF67 1-491)
chain: B1 chain with K73A
In the case of B2, in assay [2], the binding entry is recorded as “no binding”.

B3: PDK1.1KD (PDK1.1_(K73A)), BiFC fusion (enzyme, UniProt Q9XF67 1-491)
chain: B1 chain with K73A
B3: the binding result in assay [6] is “no binding”.

B4: PDK1.1:YFPN (PDK1.1 fused to the N-terminal part of YFP) (enzyme, UniProt Q9XF67 1-491)
chain: B1 chain
For B4, the binding entry in assay [7] is given as “no binding”; in assay [8] it was “no binding”; in [9] it was “no binding”; in assay [10], “no binding”; in assay [6], “binds”.
